# The list shows a part of the results. Most values come without repeats; read them as rough.
# Legend:
# Experiment in all cases: cell count relative to DMSO control; melanoma cells; higher = more viable cells
# Details in all cases: library dose: low library concentration; 72 h
# WM115 = test system: WM115
# WM1716 = test system: WM1716
# WM1745 = test system: WM1745
# WM3526 = test system: WM3526
# WM3619 = test system: WM3619
# WM451Lu = test system: WM451Lu
# 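Also: cell number obtained by counting DAPI-stained nuclei in high-throughput microscope images with image analysis software, screen run in 1,536-well plates.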
SMILES,cell count (WM115) [%],cell count (WM1716) [%],cell count (WM1745) [%],cell count (WM3526) [%],cell count (WM3619) [%],cell count (WM451Lu) [%]
"Cc1cc(Nc2cc(N3CCN(C)CC3)nc(/C=C/c3ccccc3)n2)n[nH]1 + c1cc(-c2cnn3cc(-c4ccc(OCCN5CCCCC5)cc4)cnc23)ccn1 [Dorsomorphin] (first compound 0.04 µM, partner dose 0.4 µM)",101,111,85.5,106,138,97.9
"Cn1c(=O)n(-c2ccc(C(C)(C)C#N)cc2)c2c3cc(-c4cnc5ccccc5c4)ccc3ncc21 + Cc1ccc(NC(=O)c2cccc(N(C)C)c2)cc1NC(=O)c1ccc(O)cc1 [ZM336372] (first compound 0.004 µM, partner dose 2 µM)",96.6,114,93.1,86.5,94.3,113
"CC(C)C[C@H](NC(=O)[C@H](Cc1ccccc1)NC(=O)c1cnccn1)B(O)O [Bortezomib] + CC1(C)NC(=O)N(c2ccc([N+](=O)[O-])c(C(F)(F)F)c2)C1=O [nilutamide] (first compound 0.001 µM, partner dose 1 µM)",100,29.6,68.3,85.5,21.6,85.2
"Cn1c(=O)n(-c2ccc(C(C)(C)C#N)cc2)c2c3cc(-c4cnc5ccccc5c4)ccc3ncc21 + Cn1cc(/C=C2\C(=O)Nc3cccnc32)c2ccccc21 [GW441756] (first compound 0.004 µM, partner dose 0.4 µM)",91.8,94.7,126,105,139,114
"COc1ccc(C2=N[C@@H](c3ccc(Cl)cc3)[C@@H](c3ccc(Cl)cc3)N2C(=O)N2CCNC(=O)C2)c(OC(C)C)c1 [Nutlin-3] + COc1ccc2c(c1)CCC1C2CCC2(C)C(NCCCCCCN3C(=O)C=CC3=O)CCC12 [U73122] (first compound 0.1 µM, partner dose 0.4 µM)",102,80.9,88.1,85.3,78.1,97.3
"COc1ccc(C2=N[C@@H](c3ccc(Cl)cc3)[C@@H](c3ccc(Cl)cc3)N2C(=O)N2CCNC(=O)C2)c(OC(C)C)c1 [Nutlin-3] + CS(=O)(=O)c1ccc(C(=O)Nc2ccc(Cl)c(-c3ccccn3)c2)c(Cl)c1 [vismodegib] (first compound 0.1 µM, partner dose 1 µM)",91.5,77.1,111,96.8,87.3,95.3
"COc1ccc(C2=N[C@@H](c3ccc(Cl)cc3)[C@@H](c3ccc(Cl)cc3)N2C(=O)N2CCNC(=O)C2)c(OC(C)C)c1 [Nutlin-3] + O=C(O)c1ccc2c(c1)nc(Nc1cccc(Cl)c1)c1ccncc12 [CX4945] (first compound 0.1 µM, partner dose 0.4 µM)",88.2,77.1,84.9,84.7,99.1,98.5
"CC(C)C[C@H](NC(=O)[C@H](Cc1ccccc1)NC(=O)c1cnccn1)B(O)O [Bortezomib] + CCCCCCCCCCCC1=C(O)C(=O)C=C(O)C1=O [Embelin] (first compound 0.001 µM, partner dose 1.2 µM)",109,134,110,102,113,86.9
"Cc1cn(-c2cc(NC(=O)c3ccc(C)c(Nc4nccc(-c5cccnc5)n4)c3)cc(C(F)(F)F)c2)cn1 [nilotinib] + CC(C)CCN1c2nc(Nc3cc(F)c(O)c(F)c3)ncc2N(C)C(=O)C1C [BID1870] (first compound 0.2 µM, partner dose 0.2 µM)",103,105,84.9,103,113,107
"Cc1cn(-c2cc(NC(=O)c3ccc(C)c(Nc4nccc(-c5cccnc5)n4)c3)cc(C(F)(F)F)c2)cn1 [nilotinib] + Cc1cc([N+](=O)[O-])ccc1NS(=O)(=O)c1cc(Cl)ccc1Cl [FH535] (first compound 0.2 µM, partner dose 1 µM)",89.3,100,99,111,104,102
"Cn1c(=O)n(-c2ccc(C(C)(C)C#N)cc2)c2c3cc(-c4cnc5ccccc5c4)ccc3ncc21 + Cc1cc([N+](=O)[O-])ccc1NS(=O)(=O)c1cc(Cl)ccc1Cl [FH535] (first compound 0.004 µM, partner dose 1 µM)",78.3,77.8,104,77.6,80.9,98
"COc1ccc(C2=N[C@@H](c3ccc(Cl)cc3)[C@@H](c3ccc(Cl)cc3)N2C(=O)N2CCNC(=O)C2)c(OC(C)C)c1 [Nutlin-3] + CO[C@H]1C[C@@H]2CC[C@@H](C)[C@@](O)(O2)C(=O)C(=O)N2CCCC[C@H]2C(=O)O[C@H]([C@H](C)C[C@@H]2CC[C@@H](OCCO)[C@H](OC)C2)CC(=O)[C@H](C)/C=C(\C)[C@@H](O)[C@@H](OC)C(=O)[C@H](C)C[C@H](C)/C=C/C=C/C=C/1C [everolimus] (first compound 0.1 µM, partner dose 0.02 µM)",74.5,78.6,77.3,83.4,58.3,90.4
"Cn1c(=O)n(-c2ccc(C(C)(C)C#N)cc2)c2c3cc(-c4cnc5ccccc5c4)ccc3ncc21 + CC(C)CCN1c2nc(Nc3cc(F)c(O)c(F)c3)ncc2N(C)C(=O)C1C [BID1870] (first compound 0.004 µM, partner dose 0.2 µM)",87.1,101,82.8,54.8,116,109
"Cc1cc(Nc2cc(N3CCN(C)CC3)nc(/C=C/c3ccccc3)n2)n[nH]1 + Nc1nc(F)nc2c1ncn2[C@@H]1O[C@H](CO)[C@@H](O)[C@@H]1O [fludarabine] (first compound 0.04 µM, partner dose 0.2 µM)",91.6,104,84.4,30,99.9,60.1
"Cc1cc(Nc2cc(N3CCN(C)CC3)nc(/C=C/c3ccccc3)n2)n[nH]1 + Cn1c(=O)n(-c2ccc(C(C)(C)C#N)cc2)c2c3cc(-c4cnc5ccccc5c4)ccc3ncc21 [NVP-BEZ235] (first compound 0.04 µM, partner dose 0.004 µM)",91.2,94.3,83.8,87.3,91.9,111
"COc1ccc(C2=N[C@@H](c3ccc(Cl)cc3)[C@@H](c3ccc(Cl)cc3)N2C(=O)N2CCNC(=O)C2)c(OC(C)C)c1 [Nutlin-3] + O=c1cc(-c2cccc3c2Sc2ccccc2S3)oc(N2CCOCC2)c1 [KU55933] (first compound 0.1 µM, partner dose 1 µM)",86.4,93.8,83.8,89.3,83.4,111
"Cn1c(=O)n(-c2ccc(C(C)(C)C#N)cc2)c2c3cc(-c4cnc5ccccc5c4)ccc3ncc21 + O=c1cc(-c2cccc3c2Sc2ccccc2S3)oc(N2CCOCC2)c1 [KU55933] (first compound 0.004 µM, partner dose 1 µM)",93.9,85.9,91.5,73.2,74.7,108
"Cn1c(=O)n(-c2ccc(C(C)(C)C#N)cc2)c2c3cc(-c4cnc5ccccc5c4)ccc3ncc21 + NC(=O)Nc1cc(-c2cccc(F)c2)sc1C(=O)N[C@H]1CCCNC1 [AZD7762] (first compound 0.004 µM, partner dose 0.02 µM)",68.8,79.1,86,59,41.3,75.9
"Cn1c(=O)n(-c2ccc(C(C)(C)C#N)cc2)c2c3cc(-c4cnc5ccccc5c4)ccc3ncc21 + O=C(O)C(=O)Nc1sc2c(c1C(=O)O)CCNC2 [TCS401] (first compound 0.004 µM, partner dose 1.66667 µM)",84.9,92.6,92.1,78.6,119,96.6
"Cn1c(=O)n(-c2ccc(C(C)(C)C#N)cc2)c2c3cc(-c4cnc5ccccc5c4)ccc3ncc21 + CCc1ccc(CCOc2ccc(CC3SC(=O)NC3=O)cc2)nc1 [pioglitazone] (first compound 0.004 µM, partner dose 2 µM)",92.9,79.8,107,81.7,102,59.8
"COc1ccc(C2=N[C@@H](c3ccc(Cl)cc3)[C@@H](c3ccc(Cl)cc3)N2C(=O)N2CCNC(=O)C2)c(OC(C)C)c1 [Nutlin-3] + CC(=O)O[C@@]12CO[C@@H]1C[C@H](O)[C@@]1(C)C(=O)[C@H](O)C3=C(C)[C@@H](OC(=O)[C@H](O)[C@@H](NC(=O)OC(C)(C)C)c4ccccc4)C[C@@](O)([C@@H](OC(=O)c4ccccc4)[C@H]21)C3(C)C [Docetaxel] (first compound 0.1 µM, partner dose 0.0001 µM)",67.3,45,66.8,58.6,50.8,64.7
"COc1ccc(C2=N[C@@H](c3ccc(Cl)cc3)[C@@H](c3ccc(Cl)cc3)N2C(=O)N2CCNC(=O)C2)c(OC(C)C)c1 [Nutlin-3] + C#Cc1cccc(Nc2ncnc3cc(OCCOC)c(OCCOC)cc23)c1 [erlotinib] (first compound 0.1 µM, partner dose 0.8 µM)",97.2,100,78.4,107,91.2,113
"Cc1cc(Nc2cc(N3CCN(C)CC3)nc(/C=C/c3ccccc3)n2)n[nH]1 + Cn1nnc2c(C(N)=O)ncn2c1=O [temozolomide] (first compound 0.04 µM, partner dose 2 µM)",85.4,91.8,96.6,113,75,66.4
"COc1ccc(C2=N[C@@H](c3ccc(Cl)cc3)[C@@H](c3ccc(Cl)cc3)N2C(=O)N2CCNC(=O)C2)c(OC(C)C)c1 [Nutlin-3] + Cc1cc([N+](=O)[O-])ccc1NS(=O)(=O)c1cc(Cl)ccc1Cl [FH535] (first compound 0.1 µM, partner dose 1 µM)",87.6,98.8,93.9,106,105,99.5
